This is one part of the list. At the low end of the ranking, values are background and their order means little.

The assay concerns the target T1, GST-Rok-C97-191 (UniProt O34857).
T1 sequence: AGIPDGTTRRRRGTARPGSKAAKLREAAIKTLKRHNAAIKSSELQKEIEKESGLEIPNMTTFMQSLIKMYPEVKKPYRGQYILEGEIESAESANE
The assay is described as follows: protein binding microarray.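 Also: rank score from −0.5 (least bound) to 0.5 (best bound).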 Conditions: Rok is a gene silencer of Bacillus subtilis; high values mean tight binding; most listed sequences are background and not binding sites; double strand, one strand shown.
For the sequence AAAGGTAG, the binding signal is 0.316 E-score. The sequence CAGTCGCC yielded a binding signal of -0.232 E-score.

For GTGCATGA, the binding signal was -0.0244 E-score. ATCTTACC came in with a binding signal of 0.2 E-score. The result for CAGACCGG reads 0.0497 E-score; that for ATTATAGG, 0.226 E-score; that for CCTTGTTC, -0.069 E-score. The result for GACTTCAC reads -0.114 E-score. Sequence ACGGCTCC registered a binding signal of -0.23 E-score.

The sequence ACATCTGG registered a binding signal of -0.233 E-score. As to ACCATAGT, the binding signal was 0.21 E-score. Under AACTCATA stands 0.0551 E-score; under CTTCGGCC, -0.0974 E-score; under CGTTGGTA, 0.174 E-score.

In turn, ATATGTCG had a binding signal of 0.22 E-score. As for CCACAATC, the binding signal was -0.0214 E-score.

Take CTCAAAGA: the binding signal is -0.0568 E-score. For GCGCGCGC, the binding signal came to 0.00259 E-score. CTGATTAC registered a binding signal of 0.0104 E-score. The sequence TGGATGAA displayed a binding signal of -0.115 E-score. Take AAAGGGGC: the binding signal is -0.316 E-score. GCTCTGAC gave a binding signal of -0.296 E-score. The result for GCGTCTGA reads -0.208 E-score; that for AAGGTCGG, -0.209 E-score; that for CGAACGCC, -0.36 E-score. Under CGCTCGAC stands -0.142 E-score. Regarding CGGCAAGA, the binding signal amounted to 0.0761 E-score. As to AGGCCCCC, the binding signal was -0.385 E-score.

Turning to CAATGTCA, the binding signal was 0.0875 E-score.

Take CCAGGATA: the binding signal is 0.0439 E-score.

In turn, AACGATGC registered a binding signal of -0.0905 E-score. For GACGACAA, the binding signal was -0.0358 E-score.

In turn, GATTCGGC gave a binding signal of -0.286 E-score. On to CAGGGACA, for which the binding signal is -0.257 E-score. In turn, CTACGTGA gave a binding signal of -0.0981 E-score. Sequence GAGTCATC showed a binding signal of -0.185 E-score. For AGGGTCAC, the binding signal was -0.127 E-score.

Take GCATACCC: the binding signal was -0.0893 E-score. Turning to GAGCCGCA, the binding signal is -0.281 E-score.

Sequence GTTGGGTA had a binding signal of 0.124 E-score.

The sequence ACATAACG gave a binding signal of 0.154 E-score. The sequence CTCTTGTC displayed a binding signal of -0.25 E-score. Sequence AAGAGAGT gave a binding signal of -0.095 E-score. Under ACCCCAGG stands -0.284 E-score; under CCTGTAGC, 0.0103 E-score; under AGGGTTAT, -0.176 E-score.

As to CTCCACTC, the binding signal was -0.216 E-score. For the sequence CCACTTTC, the binding signal is -0.152 E-score.

For the sequence AACCTCAC, the binding signal is -0.124 E-score. For CAGGAGAC, the binding signal is -0.181 E-score. Sequence CCAGCCGG gave a binding signal of -0.207 E-score.

Sequence CAAGATCG displayed a binding signal of 0.091 E-score. As to ATAAACTC, the binding signal is 0.173 E-score. Sequence CCACATGC gave a binding signal of -0.0305 E-score. For AAGCGTTG, the binding signal was -0.156 E-score. ACCTTAGC gave a binding signal of -0.0479 E-score. Under GCATGGGA stands -0.112 E-score; under AGGCATTG, -0.0865 E-score. The result for GGTGCAGA reads -0.162 E-score; that for CCCCTTCA, -0.197 E-score; that for AAGATAAG, 0.0425 E-score. On to ATGATTTC, for which the binding signal worked out at 0.0114 E-score. Under CGCTACCA stands 0.169 E-score; under ACATATGG, 0.132 E-score; under CTACAGCA, 0.13 E-score.

With GATAGAAC, the binding signal worked out at 0.289 E-score. On to AAAATCCG, for which the binding signal is -0.0518 E-score. The sequence GCGTATAC showed a binding signal of -0.124 E-score. With ACGAGCAT, the binding signal was 0.0539 E-score. Under ATTGGCCG stands -0.00492 E-score. For the sequence ACAGCCTA, the binding signal is -0.0107 E-score. Consider ACCTAGCG, for which the binding signal was found to be 0.0206 E-score. In turn, GACAATGC registered a binding signal of -0.329 E-score. AAAGGTTG displayed a binding signal of -0.0321 E-score. Regarding ACTATCAG, the binding signal is 0.0802 E-score. The result for ATGGTGTG reads -0.0562 E-score; that for AAGTCGAC, 0.0287 E-score.

Regarding ACCACGAT, the binding signal was -0.103 E-score.

Turning to AGTGTCAC, the binding signal came to 0.0262 E-score. The sequence GCGGAAGA showed a binding signal of -0.192 E-score. In turn, AGAGACCG had a binding signal of -0.188 E-score. Consider GGATCTAC, for which the binding signal is 0.259 E-score. Regarding AACACACT, the binding signal stood at 0.199 E-score. The result for ATAGTTCA reads 0.265 E-score; that for AGATGACC, -0.241 E-score; that for GCGCTCAA, -0.26 E-score. CAGGGAAG had a binding signal of -0.22 E-score.

ATTTGAAG: the binding signal is -0.0999 E-score. Under CTAGTTAA stands 0.327 E-score; under CCACTCCG, -0.132 E-score; under ACCCTTAG, -0.0473 E-score. The sequence CTACTCAG returned a binding signal of 0.0557 E-score.

On to ATTATACA, for which the binding signal was determined as 0.333 E-score. Sequence AACTAAAG had a binding signal of -0.0536 E-score. Take ATAGCGCC: the binding signal stood at 0.0646 E-score. The result for GAGACGAA reads -0.0812 E-score; that for TGACAGCA, -0.0757 E-score; that for AACGTGGA, 0.103 E-score. Sequence CAATCTCG came in with a binding signal of 0.00272 E-score. The result for GGATGAAA reads 0.195 E-score; that for CAGAGGAA, -0.0243 E-score. Sequence GCGCGAAC yielded a binding signal of -0.0346 E-score.

ATTGACAG returned a binding signal of 0.0109 E-score. For the sequence TAAAGTCA, the binding signal was -0.0164 E-score.

CCCAGCGG gave a binding signal of -0.261 E-score. Regarding GTCGAAGA, the binding signal is -0.229 E-score. For the sequence GAATGGGA, the binding signal was -0.108 E-score. Regarding CCAGCACA, the binding signal is -0.23 E-score.

On to ACAGATTA, for which the binding signal stood at 0.0434 E-score. Consider AATACAAC, for which the binding signal amounted to 0.278 E-score. As for CTATAACC, the binding signal was found to be 0.00998 E-score. Under GATAACAA stands 0.158 E-score. The sequence ATGTAACG gave a binding signal of 0.168 E-score. For the sequence ACAGATGC, the binding signal was -0.223 E-score. The result for GAGTTATC reads 0.206 E-score.

Regarding ATTTAAAC, the binding signal turned out to be 0.0707 E-score. For CAAAACCA, the binding signal is -0.0222 E-score.

CCTGCGGC: the binding signal was -0.224 E-score. In the case of CGGTGGTA, the binding signal is 0.198 E-score. The result for CGCAAAGA reads -0.193 E-score.

As for AGAGGGCG, the binding signal was -0.291 E-score. GGGTTTAA had a binding signal of -0.164 E-score. The sequence CAATGGAC had a binding signal of 0.00709 E-score. In turn, AAGTTAAC had a binding signal of 0.178 E-score. With AGACGTTA, the binding signal was 0.0889 E-score. Regarding CTCTTCGC, the binding signal was determined as 0.115 E-score.

In the case of ATAACCAA, the binding signal was 0.23 E-score. On to ACAGCTCT, for which the binding signal was -0.144 E-score. Consider ATAAAAGA, for which the binding signal worked out at 0.0514 E-score. CAACAGGG gave a binding signal of -0.0974 E-score. Take GAGCCGGA: the binding signal is -0.257 E-score. The sequence GTGGCGTA gave a binding signal of 0.0938 E-score. Under ACTATGGA stands 0.0778 E-score; under GGTTTTTA, 0.295 E-score; under TATCTACA, 0.361 E-score.

In turn, GGCGGCAC yielded a binding signal of -0.203 E-score. In the case of CATCACCG, the binding signal is -0.297 E-score. As for CCGGCGGC, the binding signal was -0.337 E-score. For the sequence CGCTTAAG, the binding signal is -0.0513 E-score. In turn, CATGGGGA returned a binding signal of -0.224 E-score.

Regarding GACTAGCC, the binding signal was -0.0639 E-score. Under GCGCAGCA stands -0.23 E-score; under AGCCTATC, -0.00476 E-score. For the sequence ACAAGCGT, the binding signal is -0.0185 E-score. Turning to TCGCGCAA, the binding signal worked out at 0.00428 E-score. Under GGCGAGCC stands -0.342 E-score; under ATAAACAT, 0.147 E-score. As for GTGCCCCA, the binding signal was -0.248 E-score.

For GGCTTGAA, the binding signal is -0.105 E-score. As to AGTCAATA, the binding signal was determined as 0.254 E-score. As for ATGTGTTC, the binding signal was -0.0814 E-score. ATACATTG showed a binding signal of 0.3 E-score.

ACCTAATC showed a binding signal of 0.204 E-score. Consider ACCAAAAA, for which the binding signal was 0.167 E-score. Sequence ATAGAATG registered a binding signal of 0.165 E-score. ACTTTAGA displayed a binding signal of -0.000697 E-score. With CCGTGTCC, the binding signal is -0.357 E-score.

In the case of AGAGCAGC, the binding signal was -0.187 E-score.

ACTCGAGT gave a binding signal of -0.131 E-score. Under CGTAACAG stands 0.131 E-score; under GGTAAGCA, 0.0231 E-score; under AAACAGGA, -0.186 E-score. Sequence CCTCTGGC yielded a binding signal of -0.246 E-score. In the case of CAAGACAG, the binding signal was -0.2 E-score. The result for GCCACGAA reads -0.0882 E-score; that for AGAATCCT, -0.0221 E-score; that for CGGTTGAA, -0.0645 E-score. For the sequence GGCCTGTA, the binding signal was -0.146 E-score. Take CTTACCCA: the binding signal turned out to be 0.00339 E-score.

Turning to AAAGAGAG, the binding signal is -0.0871 E-score. Take CTTCTATA: the binding signal is 0.211 E-score. For TAACGAAA, the binding signal worked out at 0.296 E-score.

The values above are taken from publication PMC6212790.
